In paper PMC9911399, “Two distinct binding modes provide the RNA-binding protein RbFox with extraordinary sequence specificity”:
Residue numbers refer to the chain shown, from its start. The list shows a part of the results.

T1: RBFOX1 RRM (Homo sapiens, UniProt Q9NWB1 109-208)
T1 sequence: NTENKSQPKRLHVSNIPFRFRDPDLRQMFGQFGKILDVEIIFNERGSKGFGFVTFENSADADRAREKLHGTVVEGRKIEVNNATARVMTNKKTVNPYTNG

B1: GACCAGG (DNA:RNA)
RNA: GGGAGACCGGAAUUCAGAUUGUCCGACCAGGUUAAAUCCCGUCGUAGCCACCA
DNA 1: CAATCTGAATTCCGGTCTCCC
DNA 2: TGGTGGCTACGACGGGATT
B2: UUUUCCG (DNA:RNA)
RNA: B1 RNA with G25U, A26U, C27U, C28U, A29C, G30C
DNA 1: CAATCTGAATTCCGGTCTCCC
DNA 2: TGGTGGCTACGACGGGATT
B3: GCGAGGU (DNA:RNA)
RNA: B1 RNA with A26C, C27G, C28A, A29G, G31U
DNA 1: CAATCTGAATTCCGGTCTCCC
DNA 2: TGGTGGCTACGACGGGATT
B4: AUAAACG (DNA:RNA)
RNA: B1 RNA with G25A, A26U, C27A, C28A, G30C
DNA 1: CAATCTGAATTCCGGTCTCCC
DNA 2: TGGTGGCTACGACGGGATT
B5: CGUUAAA (DNA:RNA)
RNA: B1 RNA with G25C, A26G, C27U, C28U, G30A, G31A
DNA 1: CAATCTGAATTCCGGTCTCCC
DNA 2: TGGTGGCTACGACGGGATT
B6: CACCAUU (DNA:RNA)
RNA: B1 RNA with G25C, G30U, G31U
DNA 1: CAATCTGAATTCCGGTCTCCC
DNA 2: TGGTGGCTACGACGGGATT
B7: AUGAACG (DNA:RNA)
RNA: B1 RNA with G25A, A26U, C27G, C28A, G30C
DNA 1: CAATCTGAATTCCGGTCTCCC
DNA 2: TGGTGGCTACGACGGGATT
B8: GUGGGGU (DNA:RNA)
RNA: B1 RNA with A26U, C27G, C28G, A29G, G31U
DNA 1: CAATCTGAATTCCGGTCTCCC
DNA 2: TGGTGGCTACGACGGGATT
B9: GCUAAUG (DNA:RNA)
RNA: B1 RNA with A26C, C27U, C28A, G30U
DNA 1: CAATCTGAATTCCGGTCTCCC
DNA 2: TGGTGGCTACGACGGGATT
B10: GUAAGGU (DNA:RNA)
RNA: B1 RNA with A26U, C27A, C28A, A29G, G31U
DNA 1: CAATCTGAATTCCGGTCTCCC
DNA 2: TGGTGGCTACGACGGGATT
B11: UAAACGU (DNA:RNA)
RNA: B1 RNA with G25U, C27A, C28A, A29C, G31U
DNA 1: CAATCTGAATTCCGGTCTCCC
DNA 2: TGGTGGCTACGACGGGATT
B12: AUAAAAC (DNA:RNA)
RNA: B1 RNA with G25A, A26U, C27A, C28A, G30A, G31C
DNA 1: CAATCTGAATTCCGGTCTCCC
DNA 2: TGGTGGCTACGACGGGATT
B13: AAAUUGA (DNA:RNA)
RNA: B1 RNA with G25A, C27A, C28U, A29U, G31A
DNA 1: CAATCTGAATTCCGGTCTCCC
DNA 2: TGGTGGCTACGACGGGATT
B14: CAUAAAG (DNA:RNA)
RNA: B1 RNA with G25C, C27U, C28A, G30A
DNA 1: CAATCTGAATTCCGGTCTCCC
DNA 2: TGGTGGCTACGACGGGATT
B15: CGGCUCG (DNA:RNA)
RNA: B1 RNA with G25C, A26G, C27G, A29U, G30C
DNA 1: CAATCTGAATTCCGGTCTCCC
DNA 2: TGGTGGCTACGACGGGATT
B16: UGUGCCG (DNA:RNA)
RNA: B1 RNA with G25U, A26G, C27U, C28G, A29C, G30C
DNA 1: CAATCTGAATTCCGGTCTCCC
DNA 2: TGGTGGCTACGACGGGATT
B17: GAGCCGG (DNA:RNA)
RNA: B1 RNA with C27G, A29C
DNA 1: CAATCTGAATTCCGGTCTCCC
DNA 2: TGGTGGCTACGACGGGATT
B18: GCCGUGA (DNA:RNA)
RNA: B1 RNA with A26C, C28G, A29U, G31A
DNA 1: CAATCTGAATTCCGGTCTCCC
DNA 2: TGGTGGCTACGACGGGATT
B19: AUCACCG (DNA:RNA)
RNA: B1 RNA with G25A, A26U, C28A, A29C, G30C
DNA 1: CAATCTGAATTCCGGTCTCCC
DNA 2: TGGTGGCTACGACGGGATT
B20: GCACGGA (DNA:RNA)
RNA: B1 RNA with A26C, C27A, A29G, G31A
DNA 1: CAATCTGAATTCCGGTCTCCC
DNA 2: TGGTGGCTACGACGGGATT

The binders below were run against T1, RBFOX1 RRM (assay: EMSA; HiTS-Eq, 1 nM pool, 10 min; buffer printed only for the single-RNA assays: 10 mM Tris pH 7.5, 150 mM NaCl, 3.4 mM EDTA, 0.001% NP-40, 30 C). Settings: tags: His6 N-terminal (pET28a); label: 5' 32P.
Outline: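 Relative association constants, normalised to the cognate motif, were derived by comparing read counts of each RNA species with those of the control reaction. The RNA sequenced was the free fraction, separated by 8% native PAGE after a 10 min equilibration in 50 µL of 1 nM 5′-radiolabelled RNA (7 randomized nucleotides) with increasing concentrations of purified wild-type or mutant RbFox RRM.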
With B1 the binding signal was 0.013 KA relative to UGCAUGU. With B2 the binding signal was 0.0112 KA relative to UGCAUGU. For B3, the binding signal was 0.0132 KA relative to UGCAUGU. In the case of B4, the binding signal is reported as 0.000823 KA relative to UGCAUGU. With B5 the binding signal was 0.00307 KA relative to UGCAUGU. For B6, the binding signal was 0.000381 KA relative to UGCAUGU. For B7, the binding signal was 0.00874 KA relative to UGCAUGU. B8 was tested, and the binding signal was 0.014 KA relative to UGCAUGU. For B9, the binding signal was 0.0129 KA relative to UGCAUGU. In the case of B10, the binding signal is reported as 0.00752 KA relative to UGCAUGU. In the case of B11, the binding signal is reported as 0.00551 KA relative to UGCAUGU. B12 was tested, and the binding signal was 0.000263 KA relative to UGCAUGU. In the case of B13, the binding signal is reported as 0.00544 KA relative to UGCAUGU. For B14, the binding signal was 0.00409 KA relative to UGCAUGU. With B15 the binding signal was 0.0112 KA relative to UGCAUGU. B16 was tested, and the binding signal was 0.0199 KA relative to UGCAUGU. In the case of B17, the binding signal is reported as 0.00449 KA relative to UGCAUGU. B18 was tested, and the binding signal was 0.0146 KA relative to UGCAUGU. With B19 the binding signal was 0.000671 KA relative to UGCAUGU. B20 was tested, and the binding signal was 0.0162 KA relative to UGCAUGU.
